Reference: PubChem BioAssay AID651820 (National Center for Advancing Translational Sciences (NCATS), 2012)
Where “and” joins values, the source holds several entries; their conditions need not be identical. Equal values may be shown once. Out of some 340,000 compounds screened, about 12,000 (3.5%) were called active. Inconclusive results, whose numbers are uncertain, are shown with a selection of clear calls. Calls follow the shape of the dose curve; as a rule, active = well fitted inhibition curve with a large enough effect; inconclusive = small, poorly fitted or top-dose-only effect, or another doubt; inactive = no such curve, though single readings can be large or run the other way. Where the call is inconclusive, the potency comes from a doubtful curve fit.

Assay: qHTS Assay for Inhibitors of Hepatitis C Virus (HCV)
Details: Huh7.5.1 HCVcc-Cre (HCVcc is cell-culture hepatitis C virus) infection, luciferase reporter, 44 h; series mostly up to 41.8 µM
In short: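 Luciferase read-out (15 sec integration) after a 15 min room-temperature substrate step quantifies HCVcc-Cre infection. Cells, 1,000 per well, had compound added 4 h post-plating, then virus at ~0.5 moi, and were cultured 44 h.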
Potency is read from the fitted curve at half-maximal effect; tags tell the direction and shape of the fitted curve.

| SMILES | Potency |
| --- | --- |
| O=C(COC(=O)c1ccc2c(c1)C(=O)N(CCc1ccccc1)C2=O)Nc1ccc(OC(F)F)cc1 | inactive |
| COCCNC(=O)c1nc2c(nnn2Cc2cc(C)ccc2C)c(=O)[nH]1 | inactive |
| CCCCNc1oc(-c2cccs2)nc1S(=O)(=O)c1ccccc1 | active: 10 µM |
| O=[N+]([O-])c1cccc(NC(=S)Nc2nc(-c3ccccc3Cl)cs2)c1 | active: 8.91 µM |
| Cc1ccc(NC(=O)N(Cc2cc3cc(C)cc(C)c3[nH]c2=O)CC2COCCO2)cc1 (stereo not given) | inconclusive: 10 µM [inhibitor, partial curve] |
| O=C(CSc1ccc2nnc(-c3ccccc3)n2n1)NCc1ccco1 | inactive |
| COc1cc(OC)cc(C(=O)N[C@H](C(=O)NC23CC4CC(CC(C4)C2)C3)C(C)C)c1 | inactive |
| CC(C)C(=O)Nc1ccc2c3c(cccc13)CC2 | inconclusive: 10 µM [inhibitor, partial curve] |
| COc1cccc(NC(=O)CSC2=C(C#N)C(c3ccco3)C3=C(CCCC3=O)N2)c1 (stereo not given) | inconclusive: 2 µM [inhibitor, full curve] |
| CC(=O)c1c(C)[nH]c(C(=O)NCCC2=CCCCC2)c1C | inconclusive: 22.4 µM [inhibitor, single point] |
| Cc1cc(NC(=O)CCC(=O)N(c2ccccc2)C2(C(=O)NC3CCCCC3)CCCC2)no1 | inconclusive: 31.6 µM [inhibitor, single point] |
| COc1ccc(C)cc1N(CC(=O)NCCSCc1ccco1)S(=O)(=O)c1ccc(C)cc1 | inconclusive: 10 µM [inhibitor, single point] |
| COc1ccc(NS(=O)(=O)c2ccc(NS(=O)(=O)c3ccc(SC)cc3)cc2)c(OC)c1 | inactive |
| COc1ccc(-c2sc3cc(OC)c(OC)cc3c2C#CC(C)(C)O)cc1 | active: 1.41 µM |
| O=C(NC(=S)Nc1cc(Cl)ccc1N1CCOCC1)c1ccc(-c2cccc(Cl)c2)o1 | inactive |
| O=c1ccc2cc3ccoc3c(O)c2o1 | active: 1 µM |
| Cc1ccc(Cn2ccc(-c3cnc(-c4ccccc4)s3)n2)cc1 | inconclusive: 5.62 µM [inhibitor, full curve, poor fit] |
| CCC1=C(c2ccc(C)cc2)S(=O)(=O)N=C1N1CCC(C(=O)NCCCN2CCCCC2C)CC1 (stereo not given) | inactive |
| CCOC(=O)[C@@H]1[C@H]2COc3cc(OC)ccc3[C@@H]2N2C(=O)N(c3ccc(C)cc3)C(=O)[C@@]12C | inconclusive: 5.01 µM [inhibitor, single point] |
| COc1ccc(CNC(=O)c2sc3nc4c(c(C(F)(F)F)c3c2N)CCC4)cc1OC | inconclusive: 35.5 µM [inhibitor, single point] |
| COC(=O)c1sc(NC(=O)COc2cccc3ccccc23)nc1C | inconclusive: 3.55 µM [inhibitor, full curve] |
| Nc1c(N(Cc2ccco2)C(=O)COc2ccc(Cl)cc2)c(=O)[nH]c(=O)n1Cc1ccccc1 | inconclusive: 11.2 µM [inhibitor, single point] |
| Cc1cc(Cl)ccc1OC(C)C(=O)NCCc1ccc2c(c1)OCCO2 (stereo not given) | inconclusive: 31.6 µM [inhibitor, single point] |
| CCc1ccc(OCC(=O)N/N=C/c2cc([N+](=O)[O-])ccc2N2CCCCCC2)cc1 | inactive |

| SMILES | Potency |
| --- | --- |
| Fc1cccc(-c2cc3nc4c(c(N5CCOCC5)n3n2)CCCC4)c1 | active: 3.55 µM |
| O=c1[nH]c(=O)n([C@H]2C[C@H](O)[C@@H](CO)O2)cc1C(F)(F)F | inconclusive: 1.41 µM [inhibitor, full curve] |
| COc1ccccc1Cn1nnc2c(=O)[nH]c(C3CCN(C(=O)c4ccccc4Cl)CC3)nc21 | inactive |
| O=C(Nc1ccc2c(c1)OCO2)C1CCCCN1S(=O)(=O)c1ccc(F)cc1 (stereo not given) | inactive |
| Cc1ccccc1Nc1nc(N)nc(CN(C)c2ccccc2)n1 | inactive |
| Cc1c(C(=O)Nc2cccc(Cl)c2)c2ccccn2c1CCc1ccncc1 | inconclusive: 31.6 µM [inhibitor, single point] |
| Cc1noc(C)c1C(=O)Nc1ccc(S(=O)(=O)N2CCC(C)CC2)cc1 | inconclusive: 10 µM [inhibitor, partial curve] |
| COc1ccc(NC2CCCN(C(=O)CCN3CCCC3=O)C2)cc1OC (stereo not given) | inactive |
| CCCOC(=O)CSC1=C(C#N)C(c2ccc3c(c2)OCO3)CC(=O)N1 (stereo not given) | inconclusive: 20 µM [inhibitor, partial curve, poor fit] |
| CCNC(=S)NNC(=O)c1csc(C)c1 | inactive |
| Cc1ccccc1OCCN1C(=O)C(=O)c2cccc(C)c21 | inconclusive: 31.6 µM [inhibitor, single point] |
| Cc1ccccc1-c1nc(CS(=O)(=O)CC(=O)Nc2cc(F)ccc2F)c(C)o1 | inconclusive: 10 µM [inhibitor, partial curve] |
| O=C(/C=C/c1ccc2c(c1)OCO2)NCCSCc1c(Cl)cccc1Cl | inconclusive: 7.94 µM [inhibitor, partial curve, poor fit] |
| CN(C(=O)c1cccc(COc2ccc(Cl)cc2Cl)c1)c1ccccc1 | inconclusive: 12.6 µM [inhibitor, single point] |
| CN(C)c1ccc(C=c2c3ccccc3n3c2cc(-c2ccccc2)[n+]3C)cc1 | inconclusive: 2.82 µM [inhibitor, full curve] |
| O=C(NCCCOC(=O)c1ccccc1)c1ccccc1 | inactive |
| Cc1cnc(C(=O)OCC(=O)NC(C)c2ccccc2)cn1 (stereo not given) | inactive |
| CCCC(=O)Nc1nnc(S(=O)(=O)N(CC(C)C)c2ccccc2)s1 | inactive |
| COc1ccc(-n2c(=O)c3ccccc3n(CC(=O)OCc3ccccc3)c2=O)cc1OC | inactive |
| COc1ccc(C(=O)NCCSCc2ccccc2)cc1OC | inconclusive: 31.6 µM [inhibitor, single point] |
| CCOc1cccc2sc(N(CCCN(C)C)C(=O)c3ccc(S(=O)(=O)N4CCCCCC4)cc3)nc12 | inconclusive: 20 µM [inhibitor, partial curve] |
| O=C(CNC(=O)c1ccccc1F)N/N=C/c1cccs1 | inactive |
| CCc1ccc(NC(=O)c2ccc(C3SCC(=O)N3CCc3ccccc3)cc2)cc1 (stereo not given) | inconclusive: 31.6 µM [inhibitor, single point] |
| CC(CCc1ccccc1)NC(=O)COC(=O)c1cccc(N(C)C)c1 (stereo not given) | inconclusive: 31.6 µM [inhibitor, single point] |

| SMILES | Potency |
| --- | --- |
| COc1cc(OC)cc(C(=O)OCC(=O)Nc2cccc(S(=O)(=O)NC3=NCCCCC3)c2)c1 | inconclusive: 1.26 µM [inhibitor, full curve] |
| C/C(=N\NC(=O)c1ccc(C)cc1C)c1ccc2c(c1)Nc1ccccc1S2 | active: 3.55 µM |
| Cc1ccc(C(=O)c2cc3c(cc2N)OCCO3)cc1 | inactive |
| COc1ccc(N2CCN(S(=O)(=O)CCNC(=O)COc3ccc(Cl)cc3)CC2)cc1 | inactive |
| Cc1ccc(C)c(OCC(O)CN2CCCCC2C)c1 (stereo not given) | inconclusive: 11.2 µM [inhibitor, single point] |
| Cc1[nH]c2ccccc2c1CN1CCC(Cc2ccccc2)CC1 | inconclusive: 10 µM [inhibitor, single point] |
| COc1cc(Br)c(-c2sc(Nc3ccccc3)n[n+]2-c2ccc(F)cc2)cc1OC | inactive |
| CN(C)c1nc(N)c(C(=O)N=C(N)N)nc1Cl | inconclusive: 10 µM [inhibitor, partial curve] |
| CSc1ccc(COC(=O)c2cc([N+](=O)[O-])ccc2N2CCOCC2)cc1 | inconclusive: 35.5 µM [inhibitor, partial curve, poor fit] |
| O=S(=O)(c1ccccc1)N1N=C(c2ccc(Cl)cc2)CC1c1ccco1 (stereo not given) | inconclusive: 10 µM [inhibitor, partial curve] |
| COc1cccc(CN(C)C(=O)CC2C(=O)NCCN2C2Cc3ccccc3C2)c1 (stereo not given) | inactive |
| Cc1cc(C(=O)CCl)c(C)n1CC1COc2ccccc2O1 (stereo not given) | inconclusive: 22.4 µM [inhibitor, single point] |
| CC1=C(C(=O)OCc2ccc([N+](=O)[O-])cc2)N2C(=O)C(NC(=O)Cc3ccccc3)C2SC1 (stereo not given) | inactive |
| Cc1onc(-c2c(F)cccc2Cl)c1C(=O)NC1=NCCS1 | inconclusive: 10 µM [inhibitor, partial curve] |
| O=C(c1nc2ccccn2c1CN1CCCC(O)C1)N1CCN(C2CCCCC2)CC1 (stereo not given) | inconclusive: 31.6 µM [inhibitor, single point] |
| Cc1ccc(N=C2SC(C(=O)Nc3ccc(OC(F)(F)F)cc3)C(N)=C2C(=O)Nc2c(C)cc(C)cc2C)cc1 (stereo not given) | inconclusive: 22.4 µM [inhibitor, single point] and inconclusive: 12.6 µM [inhibitor, single point] |
| CC1CCCCN1CC(=O)Nc1ccccc1Sc1ccccc1 (stereo not given) | inconclusive: 31.6 µM [inhibitor, single point] |
| CC1=NN(c2ccccc2)C(=O)/C1=C/c1ccc[nH]1 | inconclusive: 10 µM [inhibitor, partial curve] |
| CCOC(=O)N1CCC(n2c(SCC(=O)NCc3ccccc3)nc3ccccc3c2=O)CC1 | inconclusive: 12.6 µM [inhibitor, single point] |
| CC(=NNC(=O)c1ccncc1)c1ccccc1O | active: 4.47 µM |
| COc1cc(/C=N/N=C(/C(=O)c2ccccc2)c2ccccc2)cc(OC)c1O | inconclusive: 0.891 µM [inhibitor, full curve] |
| COc1ccccc1NC(=S)N(Cc1ccco1)Cc1cc2cc(C)c(C)cc2[nH]c1=O | inconclusive: 7.94 µM [inhibitor, partial curve] |
